In article PMC5709738 (The EMBO Journal, 2017):
Results are given in words; binding and its absence hold for the method and conditions named. For some assays here: In cells and extracts the contact can be indirect. Some results given as binding are weak or reduced against the parent protein; the word gives no strength. Sequences can lack the tags named with a protein.

T1: Okp1 (K. lactis, full length) (Kluyveromyces lactis, UniProt Q6CJY0 1-383)
T1 construct: Okp1 (CENP-Q orthologue) of Kluyveromyces lactis; also called Okp1^CENP-Q; outer kinetochore protein 1; source: E. coli BL21 Rosetta 2(DE3)pLysS, co-expressed as COMA, purified
T1 sequence (looked up): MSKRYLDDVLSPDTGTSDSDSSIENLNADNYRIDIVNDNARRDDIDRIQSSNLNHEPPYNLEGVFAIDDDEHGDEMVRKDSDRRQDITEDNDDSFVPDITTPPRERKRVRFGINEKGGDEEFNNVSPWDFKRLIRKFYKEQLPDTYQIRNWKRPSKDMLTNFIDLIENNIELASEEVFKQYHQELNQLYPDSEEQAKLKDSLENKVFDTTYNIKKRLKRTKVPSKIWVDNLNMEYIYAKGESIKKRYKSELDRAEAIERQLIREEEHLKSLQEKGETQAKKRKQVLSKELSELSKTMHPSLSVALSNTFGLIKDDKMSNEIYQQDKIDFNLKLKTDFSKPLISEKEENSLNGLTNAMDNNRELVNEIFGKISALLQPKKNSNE

T2: Mcm21 (K. lactis, full length) (Kluyveromyces lactis) (UniProt Q6CVQ9)
T2 sequence: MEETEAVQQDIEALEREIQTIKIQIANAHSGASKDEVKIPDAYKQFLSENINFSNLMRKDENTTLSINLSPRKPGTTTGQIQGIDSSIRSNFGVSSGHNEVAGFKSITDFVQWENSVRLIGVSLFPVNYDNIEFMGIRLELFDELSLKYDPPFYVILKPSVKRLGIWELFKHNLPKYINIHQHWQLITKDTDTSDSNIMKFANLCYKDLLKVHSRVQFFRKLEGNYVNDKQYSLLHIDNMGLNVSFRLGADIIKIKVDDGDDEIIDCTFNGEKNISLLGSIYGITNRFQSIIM

T3: full-length Ctf19-Mcm21 (K. lactis) (Kluyveromyces lactis) (UniProt Q6CRN7+Q6CVQ9)
T3 sequence 1: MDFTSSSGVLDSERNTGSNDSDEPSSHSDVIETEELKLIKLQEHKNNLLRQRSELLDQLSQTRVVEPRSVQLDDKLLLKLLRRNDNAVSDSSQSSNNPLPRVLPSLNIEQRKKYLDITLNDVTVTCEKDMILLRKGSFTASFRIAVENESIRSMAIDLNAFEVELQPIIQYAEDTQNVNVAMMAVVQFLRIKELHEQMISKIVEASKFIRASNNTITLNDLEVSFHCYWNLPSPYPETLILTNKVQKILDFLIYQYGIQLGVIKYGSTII
T3 sequence 2: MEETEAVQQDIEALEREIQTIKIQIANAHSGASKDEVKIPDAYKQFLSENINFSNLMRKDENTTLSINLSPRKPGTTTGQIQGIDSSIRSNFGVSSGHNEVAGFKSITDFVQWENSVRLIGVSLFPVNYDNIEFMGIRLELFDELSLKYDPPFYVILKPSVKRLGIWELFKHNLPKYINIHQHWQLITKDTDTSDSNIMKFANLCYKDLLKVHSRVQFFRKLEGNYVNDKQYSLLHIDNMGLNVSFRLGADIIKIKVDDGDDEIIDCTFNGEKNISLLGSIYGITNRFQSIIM

T4: full-length polyhistidine-tagged Mcm21 (His-Mcm21) with Ctf19 (K. lactis, affinity purification) (Kluyveromyces lactis) (UniProt Q6CRN7+Q6CVQ9)
T4 sequence 1: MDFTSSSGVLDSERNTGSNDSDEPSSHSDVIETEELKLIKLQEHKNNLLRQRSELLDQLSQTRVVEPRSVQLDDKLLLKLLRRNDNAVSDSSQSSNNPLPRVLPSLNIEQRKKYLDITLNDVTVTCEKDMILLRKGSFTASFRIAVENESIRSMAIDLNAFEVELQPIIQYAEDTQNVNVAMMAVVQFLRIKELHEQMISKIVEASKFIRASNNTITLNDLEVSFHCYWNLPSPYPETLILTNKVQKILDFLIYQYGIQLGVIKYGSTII
T4 sequence 2: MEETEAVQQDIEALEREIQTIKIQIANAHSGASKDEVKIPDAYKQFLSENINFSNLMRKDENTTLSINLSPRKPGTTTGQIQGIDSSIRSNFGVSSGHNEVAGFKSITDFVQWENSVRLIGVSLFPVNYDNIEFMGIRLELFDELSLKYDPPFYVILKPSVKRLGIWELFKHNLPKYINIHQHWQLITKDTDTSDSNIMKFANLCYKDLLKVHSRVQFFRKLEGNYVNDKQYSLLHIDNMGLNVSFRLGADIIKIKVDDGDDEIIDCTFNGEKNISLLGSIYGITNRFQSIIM


How the values were obtained:
[1] = biological target: T1, Okp1 (K. lactis, full length); experiment: native MS; tandem mass spectrometry of COMA after partial in-solution disruption with 5% (v/v) acetic acid in 100 mM ammonium acetate, pH 4.0 (pH 3.7 for Appendix Fig S2B); both purified
[2] = biological target: T1, Okp1 (K. lactis, full length); experiment: HDX-MS; purified assemblies in D2O buffer, quenched at pH ~2.5, pepsin column; exchange patterns compared between assemblies; both purified
[3] = biological target: T2, Mcm21 (K. lactis, full length) (Kluyveromyces lactis); experiment: native MS; tandem mass spectrometry of COMA after partial in-solution disruption with 5% (v/v) acetic acid in 100 mM ammonium acetate, pH 4.0 (pH 3.7 for Appendix Fig S2B); both purified
[4] = biological target: T3, full-length Ctf19-Mcm21 (K. lactis) (Kluyveromyces lactis); experiment: as above
[5] = biological target: T4, full-length polyhistidine-tagged Mcm21 (His-Mcm21) with Ctf19 (K. lactis, affinity purification) (Kluyveromyces lactis); experiment: pull-down; co-expression in E. coli; small-scale Ni2+ affinity purification by the polyhistidine tag; eluates on Coomassie-stained SDS-PAGE

| Binder | binding [1] | binding [2] | also measured |
| --- | --- | --- | --- |
| Ame1 (K. lactis, full length) (protein, UniProt Q6CUE5 1-292) MDALKQRHLKLLYRQRGSASRTIDYDVVIEPELREDGDLVTDSQLTEQDDQSFPDIQVPSPDRVDDFDLNQGDGLMDKATANEDDIDHVIGDEVAAVNAPVETSDLVIDTTQFDSMTLSQLSTPLTSMATIDVLRRLLETVILVTIEERTSQFNRAGSARLRLKLKLEIKILTWFLHQSKEDLITISELNLSNNDLLYRLKQISLLKNSLSRSLLDVRSAISSYEGPNNALSEEQVALQNFKRINELILSQRIDTIINNNLPPDTSTFDTESKKGLLPTLKTLNESLQNTIG | binds |  |  |
| Ctf19 (K. lactis, full length) (protein, UniProt Q6CRN7 1-270) MDFTSSSGVLDSERNTGSNDSDEPSSHSDVIETEELKLIKLQEHKNNLLRQRSELLDQLSQTRVVEPRSVQLDDKLLLKLLRRNDNAVSDSSQSSNNPLPRVLPSLNIEQRKKYLDITLNDVTVTCEKDMILLRKGSFTASFRIAVENESIRSMAIDLNAFEVELQPIIQYAEDTQNVNVAMMAVVQFLRIKELHEQMISKIVEASKFIRASNNTITLNDLEVSFHCYWNLPSPYPETLILTNKVQKILDFLIYQYGIQLGVIKYGSTII | binds | binds | binding [3]: binds |
| Mcm21 (K. lactis, full length) (protein, UniProt Q6CVQ9 1-293) MEETEAVQQDIEALEREIQTIKIQIANAHSGASKDEVKIPDAYKQFLSENINFSNLMRKDENTTLSINLSPRKPGTTTGQIQGIDSSIRSNFGVSSGHNEVAGFKSITDFVQWENSVRLIGVSLFPVNYDNIEFMGIRLELFDELSLKYDPPFYVILKPSVKRLGIWELFKHNLPKYINIHQHWQLITKDTDTSDSNIMKFANLCYKDLLKVHSRVQFFRKLEGNYVNDKQYSLLHIDNMGLNVSFRLGADIIKIKVDDGDDEIIDCTFNGEKNISLLGSIYGITNRFQSIIM | binds | binds |  |
| Okp1 (K. lactis, full length) (protein, UniProt Q6CJY0 1-383) MSKRYLDDVLSPDTGTSDSDSSIENLNADNYRIDIVNDNARRDDIDRIQSSNLNHEPPYNLEGVFAIDDDEHGDEMVRKDSDRRQDITEDNDDSFVPDITTPPRERKRVRFGINEKGGDEEFNNVSPWDFKRLIRKFYKEQLPDTYQIRNWKRPSKDMLTNFIDLIENNIELASEEVFKQYHQELNQLYPDSEEQAKLKDSLENKVFDTTYNIKKRLKRTKVPSKIWVDNLNMEYIYAKGESIKKRYKSELDRAEAIERQLIREEEHLKSLQEKGETQAKKRKQVLSKELSELSKTMHPSLSVALSNTFGLIKDDKMSNEIYQQDKIDFNLKLKTDFSKPLISEKEENSLNGLTNAMDNNRELVNEIFGKISALLQPKKNSNE |  |  | binding [4]: binds |
| Ame1-Okp1 (K. lactis, full length) (complex, Kluyveromyces lactis, Ame1 of Kluyveromyces lactis; Okp1 of Kluyveromyces lactis; stands as the Ame1-Okp1 part of COMA; also called Okp1-Ame1; source: E. coli BL21 Rosetta 2(DE3)pLysS, co-expressed with Ctf19 and Mcm21 versions) chain 1: MDALKQRHLKLLYRQRGSASRTIDYDVVIEPELREDGDLVTDSQLTEQDDQSFPDIQVPSPDRVDDFDLNQGDGLMDKATANEDDIDHVIGDEVAAVNAPVETSDLVIDTTQFDSMTLSQLSTPLTSMATIDVLRRLLETVILVTIEERTSQFNRAGSARLRLKLKLEIKILTWFLHQSKEDLITISELNLSNNDLLYRLKQISLLKNSLSRSLLDVRSAISSYEGPNNALSEEQVALQNFKRINELILSQRIDTIINNNLPPDTSTFDTESKKGLLPTLKTLNESLQNTIG chain 2: MSKRYLDDVLSPDTGTSDSDSSIENLNADNYRIDIVNDNARRDDIDRIQSSNLNHEPPYNLEGVFAIDDDEHGDEMVRKDSDRRQDITEDNDDSFVPDITTPPRERKRVRFGINEKGGDEEFNNVSPWDFKRLIRKFYKEQLPDTYQIRNWKRPSKDMLTNFIDLIENNIELASEEVFKQYHQELNQLYPDSEEQAKLKDSLENKVFDTTYNIKKRLKRTKVPSKIWVDNLNMEYIYAKGESIKKRYKSELDRAEAIERQLIREEEHLKSLQEKGETQAKKRKQVLSKELSELSKTMHPSLSVALSNTFGLIKDDKMSNEIYQQDKIDFNLKLKTDFSKPLISEKEENSLNGLTNAMDNNRELVNEIFGKISALLQPKKNSNE |  |  | binding [5]: binds |
